The other results are listed elsewhere or left out.
System: T1, C. trachomatis L2/434/Bu expressing GFP (CTL2-GFP)
T1 construct: L2/434/Bu GFP intracellular growth in HeLa cells
Design: species or system HeLa; C. trachomatis total inclusion area by high-content imaging, normalised to DMSO
Conditions: total inclusion area; 28.5 h, 10 µM; inhibitor
Summary of the method: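 Following bulk GFP and resorufin fluorescence reads, infected cells were fixed, Hoechst-stained and imaged on a high-content platform. Inclusion total area and number per well served as growth proxies; nuclei counts indicated host viability. MICs were derived as for the fluorescence assay.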

SMILES | % of control remaining
Cc1cc(CNC(=O)Cn2nc(C)c(C)c2C)on1 [CBK281487] | 90.7329
Cc1cnc(C)c(N2CCN(c3cc([C@H]4C[C@@H](N)C4)ncn3)CC2)n1 [CBK307118] | 82.695
CC(=O)N1CCC[C@H]2NC(=O)CNC(=O)C3(C/C=C/C[C@H]21)CCN(C(=O)C1CCC1)CC3 [CBK292177] | 78.3682
OCCN1CSC(=S)N(CCc2ccc(Cl)cc2)C1 [CBK015713] | 66.6686
Cn1c(SCc2ccc([N+](=O)[O-])cc2)nnc1-c1ccc(NC(=O)c2ccccc2Cl)cc1 [CBK265001] | 116.41
Fc1ccc(-c2cn3ccnc3c(Nc3cccc(OC(F)(F)C(F)F)c3)n2)cc1Cl [CBK037265] | 101.282
COC(=O)c1ccc(Nc2cccc(-c3cccc(N)c3)n2)cc1OC [CBK037619] | 79.6655
O=C(O)c1cc(S(=O)(=O)NCc2ccccc2)ccc1Br [CBK261768] | 109.884
CCCc1[nH]nc(O)c1Cc1cccc(C)c1 [CBK075035] | 88.3053
COc1ccc(OCCCn2ccn(C(=O)CCCOc3ccc(Cl)cc3)c2=O)cc1 [CBK106662] | 127.102
CC1(C)CC(=O)C(=CNCC(N)=O)C(=O)C1 [CBK262520] | 83.6779
CCCn1ccnc1CN1CCCC(CC2CC2)(C(=O)O)C1 (stereo not drawn) [CBK307205] | 44.9165
COc1ccc(C(=O)N2CCC3(CCN(Cc4cc(OC)c(OC)c(OC)c4)C3)C2)cc1OC (stereo not drawn) [CBK132149] | 106.945
Cc1nc[nH]c1CN(CCCn1ccnc1)CC1CC=CCC1 (stereo not drawn) [CBK283218] | 89.2833
O=C(COc1cccc2ccccc12)NNC(=O)Cc1ccc(Cl)cc1 [CBK262988] | 83.1194
O=C(/C=C\c1ccc(Cl)cc1Cl)N1CCN(Cc2ccc3c(c2)OCO3)CC1 [CBK074371] | 0.2437
O=C(c1ccccc1)N1C[C@H](c2ccsc2)[C@H]2CN(Cc3ccsc3)CC[C@H]21 [CBK285604] | 86.5399
O=C(O)c1ccc(-c2ccc(/C=C/c3[nH]c(=O)[nH]c(=O)c3[N+](=O)[O-])o2)cc1 [CBK268055] | 100.862
CC(=O)Nc1cccc(C(=O)OCC(=O)c2cccs2)c1 [CBK306040] | 50.0936
CNC(=O)C1(Cc2ccc(-c3ccccc3)cc2)CCN(C(=O)c2ccccc2)CC1 [CBK285761] | 90.081
CCCc1cc(C(=O)N(C)CCOc2ccccc2)[nH]n1 [CBK283162] | 117.793
